The antibiotic and cytotoxicity screens of Wong et al. (2023)
The other results are listed elsewhere or left out.

The molecules below were run on HSkMC (human skeletal muscle cells) (assay: cytotoxicity call (relative viability < 0.9)). Details: 10 µM.

| SMILES | cytotoxicity call |
| --- | --- |
| COC(=O)C(=C1OC(=O)C(c2ccccc2)=C1O)c1ccccc1 | inactive |
| CC(C)NC(=O)N(C)C[C@@H]1Oc2ccc(NC(=O)Cc3ccccc3)cc2CC(=O)N([C@H](C)CO)C[C@H]1C | inactive |
| Cc1noc(C)c1S(=O)(=O)N(C)C[C@H]1Oc2c(NC(=O)C3CCOCC3)cccc2C(=O)N([C@H](C)CO)C[C@H]1C | inactive |
| O.OCC1OC(OC2C(CO)OC(O)C(O)C2O)C(O)C(O)C1O (configuration not stated) | inactive |
| COc1ccc(S(=O)(=O)N[C@H]2C=C[C@@H](CC(=O)N3CCN(c4ccccc4)CC3)O[C@H]2CO)cc1 | inactive |
| COc1ccc(S(=O)(=O)N(C)C[C@@H]2Oc3cc(C#CC4CCCC4)ccc3S(=O)(=O)N([C@H](C)CO)C[C@@H]2C)cc1 | inactive |
| COc1ccc(S(=O)(=O)Nc2ccc3c(c2)C(=O)N([C@@H](C)CO)C[C@@H](C)[C@@H](CN(C)C(=O)NC(C)C)O3)cc1 | inactive |
| C=C1C2CCC3(C)C(c4ccoc4)OC(=O)CC13OC1CC(=O)C(C)(C)C(C(O)C(=O)OC)C12C (configuration not stated) | inactive |
| C[C@@H]1CN([C@H](C)CO)C(=O)c2cccc(NS(=O)(=O)c3ccccc3)c2O[C@H]1CN(C)S(=O)(=O)c1cccs1 | inactive |
| COCC(=O)N(C)C[C@@H]1Oc2cc(-c3ccc(C#N)cc3)ccc2S(=O)(=O)N([C@@H](C)CO)C[C@H]1C | inactive |
| CC(=N)NCCCC[C@H](N)C(=O)O | inactive |
| C[C@H](CO)N1C[C@H](C)[C@@H](CN(C)S(=O)(=O)c2ccc(F)cc2)Oc2ccc(NC(=O)Cn3cnnn3)cc2CC1=O | inactive |
